According to ChEMBL document CHEMBL1201862, “PubChem BioAssay data set” (2004):

System: NCI-H322M
Assay: NCI anticancer screen, dose series, 48 h

Structure (SMILES) | GI50
COc1cc(/C=C2\Cc3ccccc3C2=O)cc(OC)c1OC | inactive: > 100 µM
CN(Cc1cnc2nc(N)nc(N)c2n1)c1ccc(C(=O)NC(CCC(=O)O)C(=O)O)c2ccccc12 (configuration not stated) | active: 0.01 µM
COC(=O)c1ccc(CCc2cc(O)ccc2O)cc1 | inactive: 44.1 µM
CC(O)/C=C/C1OC(=O)CC1Nc1ccc(C=O)cc1 (configuration not stated) | inactive: > 100 µM
Cc1cccc(CNc2[nH]cnc3nncc2-3)c1 | inactive: > 100 µM
Oc1ccnc(SCc2ccc(Cl)cc2)n1 | inactive: > 100 µM
CCN1C/C(=C\c2cc(OC)c(OC)c(OC)c2)C2=NN(c3ccccc3)C(c3cc(OC)c(OC)c(OC)c3)C2C1 (configuration not stated) | inactive: 5.85 µM
CC1CC2=C(S(=O)(=O)c3ccccc3)CC(S(=O)(=O)c3ccccc3)(S(=O)(=O)c3ccccc3)CC21 (configuration not stated) | inactive: > 100 µM
CCCCN(CCCC)C(=O)/C(CC(=O)c1cccc2ccccc12)=N\NC(=O)c1cc2ccccc2cc1O | inactive: 22.8 µM
C/C(CC1C2CCCC1C2)=N\NC(N)=O (configuration not stated) | inactive: > 100 µM
NCC(Cl)C(O)c1c[nH]c(N)n1 (configuration not stated) | inactive: 1.46 µM
Cc1ccc(C)c(N2C(=O)C(=O)C(c3nc4ccccc4s3)/C(=N/NC(=O)NN)C2=O)c1 (configuration not stated) | inactive: > 100 µM
COc1cc(C2C3=C(CCC3=O)Oc3cc4c(cc32)OCO4)cc(OC)c1OC (configuration not stated) | active: 0.403 µM
COC(=O)/C=C/N1CC1 | inactive: > 10 µM
FC(F)(F)C1(Cl)C(Cl)(c2ccccc2)C1(Cl)c1ccccc1 (configuration not stated) | inactive: 17.1 µM
CN(Cc1c[n+]([O-])c2nc(N)nc(N)c2n1)c1ccc(C(=O)NC23CC4CC(CC(C4)C2)C3)cc1 | inactive: > 100 µM
CSc1ccc(/C=C2\N=C(c3ccccc3)N(c3nc4c(Cl)cc(Cl)cc4s3)C2=O)cc1 | inactive: 25.5 µM
Cc1cc(C)nc(/C(=N\NC(N)=O)C(=O)Nc2nc3ccc(C)cc3s2)c1 | inactive: > 100 µM
COC(=O)C1=CCC[C@H]2[C@@]1(COC(C)=O)CC[C@@H](C)[C@]2(C)CC(=O)c1ccoc1 | inactive: 28.6 µM
CC(C)n1c2c([n+](C)c1/C=C/c1ccccc1)C(=O)c1ccccc1C2=O | active: 0.405 µM
O=C1NC(=O)/C(=C/c2ccc(S(=O)(=O)N/N=C/c3ccccc3)cc2)N1 | inactive: > 100 µM
CN1CCN(c2c(Cl)cc(Cl)c3[nH]c4ccccc4c(=O)c23)CC1 | inactive: 8.71 µM
O=C(CSSCC(=O)OCCS(=O)(=O)Nc1ccc(Br)cc1)OCCS(=O)(=O)Nc1ccc(Br)cc1 | inactive: 31.4 µM

Structure (SMILES) | GI50
CNC(=S)N/N=C(\C)c1nc2cccnc2[nH]1 | inactive: 38.1 µM
CC1=NN(c2nc(N)nc(-c3cc4ccccc4oc3=N)n2)C(C)(C)C1 | inactive: 17.2 µM
COCCOCCOCCOc1ccc(C(C#N)N(CCc2ccccc2)C(=O)c2cc(C(=O)N(CCc3ccccc3)C(C#N)c3ccc(OCCOCCOCCOC)cc3)cc(C(=O)N(CCc3ccccc3)C(C#N)c3ccc(OCCOCCOCCOC)cc3)c2)cc1 (configuration not stated) | inactive: > 100 µM
COc1ccc(/C=N/NC(=O)c2ccccc2Nc2ccccc2C(=O)N/N=C/c2ccc(OC)cc2)cc1 | inactive: > 100 µM
C/C(=C/c1ccccc1)CN(C(=O)/C=C\Sc1ccccc1)C(C)(C)C | inactive: > 100 µM
C=CC1ON(C)CCc2cc(OC)c(OC)cc21 (configuration not stated) | inactive: > 100 µM
Clc1ccc(OCc2nnc3sc(-c4ccc(-c5ccc(Cl)cc5Cl)o4)nn23)c(Cl)c1 | inactive: 20.9 µM
Cc1nc(-n2nc(-c3ccccc3)cc2-c2ccccc2)sc1C(=O)/C=C/c1ccc([N+](=O)[O-])cc1 | inactive: 29 µM
O=C1N[C@@H]2CCCC[C@@H]2C12CCCCC2 | inactive: > 100 µM
COC(=O)C1SC(SC)=NC12c1ccccc1Nc1ccccc12 (configuration not stated) | inactive: 51.9 µM
CC1=Nc2ccccc2OC(C)=C1/N=N/c1ccc2[nH]c(C)nc2c1 | inactive: > 100 µM
CN(C)CC/C(=N\Nc1ccc([N+](=O)[O-])cc1)c1ccccc1 | inactive: 15.2 µM
Clc1ccc(-c2c(C3=NCCN3)nnn2-c2ccccc2)cc1 | inactive: > 100 µM
CC1CC(=O)Nc2ccccc2N1C(=O)C1CC1 (configuration not stated) | inactive: > 100 µM
CCOP(=O)(O)CC1OC(CO)C(O)C1O (configuration not stated) | inactive: > 100 µM
CSc1cc(-c2ccccn2)nc(-c2ccccn2)c1 | active: 0.0621 µM
c1cc(-c2cn3c(n2)SCC3)ccn1 | inactive: > 100 µM
CN(C)CCNC(=O)C(C)(C)Oc1ccc(C(=O)c2ccc(Cl)cc2)cc1Cl | inactive: 11.9 µM
O=C(O)c1cc(Sc2ccc([N+](=O)[O-])c(C(=O)O)c2)ccc1[N+](=O)[O-] | inactive: > 100 µM
CC(=O)NC1=C(NCC(C)(C)C)C(=O)c2ccccc2C1=O | inactive: > 100 µM
CN(C)/N=N/c1nc2c(c(=O)n(C)c(=O)n2C)n1CC1CO1 (configuration not stated) | inactive: 17.3 µM
CC1CC(C)C(C(O)CC2CC(=O)N(c3ccccc3)C(=O)C2)C(O)C1 (configuration not stated) | inactive: > 100 µM
Nc1nc(N)c(CCCCc2ccccc2)c(/C=C/c2ccc([N+](=O)[O-])cc2)n1 | inactive: 4.78 µM

Structure (SMILES) | GI50
COc1ccc2nc3c([N+](=O)[O-])ccc4c3c(c2c1)N(CCCN(C)C)C(=S)N4CCCN(C)C | inactive: 4.45 µM
O=C(/C=C\c1ccccc1)Oc1ccc(/C=C2\CCCCC2=O)cc1 | inactive: > 100 µM
CC(=O)OC(Cn1cncn1)(Cn1cncn1)c1ccc(Cl)cc1Cl | inactive: > 100 µM
COc1cc(-c2cc(-c3ccccc3)nc(-c3c(OC)ccc4c(C)cc(=O)oc34)c2)cc(OC)c1OC | inactive: > 100 µM
Cc1cc2c(ccc[n+]2[O-])[n+]([O-])c1 | inactive: > 100 µM
COC1C=CC(O)C(CO)O1 (configuration not stated) | inactive: > 100 µM
CC(=O)NNC1=NN(C(C)=O)C2(S1)C(=O)Nc1ccc(Br)cc12 (configuration not stated) | inactive: > 100 µM
O=c1[nH]nc(Cc2ccccc2)n1/N=C/c1ccc([N+](=O)[O-])cc1 | inactive: > 100 µM
CCC(=O)NC(Nc1cccc(F)c1C)(C(F)(F)F)C(F)(F)F | inactive: > 100 µM
NC1=NC(c2ccccc2)CC(c2cc(Cl)ccc2O)=N1 (configuration not stated) | inactive: 20 µM
Cc1cccc2c(N)c3cccc(C(=O)NCCCNCCN)c3nc12 | inactive: 4.45 µM
CN(C)c1nc(Cl)c2c(-c3ccccc3)c(-c3ccccc3)oc2n1 | inactive: > 100 µM
O=[N+]([O-])c1ccc(O)c(/C=N/CC2CCCN3CCCCC23)c1 (configuration not stated) | inactive: 64.9 µM
NNC1=N/C(=C\c2ccccc2O)C(=O)N1 | inactive: 44.4 µM
COc1ccccc1Nc1nc(NNC(=O)Cc2ccccc2)nc(NNC(=O)c2ccncc2)n1 | inactive: > 10 µM
CC(O)CCCOC(c1ccccc1)(c1ccccc1)c1ccccc1 (configuration not stated) | inactive: 14.5 µM
CCOC(=O)/C=C(/C(=O)OCC)n1cc(C)c(=O)[nH]c1=O | inactive: 15.4 µM
O=C(O)C(O)C(O)C(O)C(=O)CO (configuration not stated) | inactive: > 100 µM
COC1C(OC(N)=O)C(O)C(Oc2ccc3c(O)c(NC(=O)c4ccc(O)c(CC=C(C)C)c4)c(=O)oc3c2C)OC1(C)C (configuration not stated) | inactive: > 100 µM
COc1ccc(C(=O)C2CCC(C(=O)O)C2)cc1 (configuration not stated) | inactive: > 100 µM
CCN(CC)CCNC(=O)c1ccc([N+](=O)[O-])cc1OC | inactive: > 100 µM

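Test compounds were applied to cells in 96-well plates for 48 hours at 5 doses. Abbreviation: GI50, concentration required for 50% inhibition of growth.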 Calls of active or inactive are those of the source. Cut-off read from the data, not from the text of the source: active = GI50 up to about 1.1 µM and inactive = higher.
